# Test results: PubChem BioAssay AID2675 (National Center for Advancing Translational Sciences (NCATS), 2010)
# Screen size: about 280,000 compounds; about 100 (0.036%) were called active. This list was built around the results that the source calls inconclusive (neither active nor inactive); the mix of calls is not that of the screen. The call rests on the fitted dose curve; in most records, active means well fitted inhibition curve with a large enough effect in the signal ratio, with a control signal flat (not every such curve was filed as active); inconclusive means small, poorly fitted or top-dose-only effect, or effect the other way, or a change in a side signal; inactive means no such curve, though single readings can be large or run the other way; the % refers to the signal ratio. Where the call is inconclusive, the potency comes from a doubtful curve fit. “Side channel” marks fits to a control or component signal instead of the main read-out.
# Molecular target: Muscleblind-like protein 1 (Homo sapiens) (UniProt Q9NR56)
# Test: qHTS Assay for Inhibitors of MBNL1-poly(CUG) RNA binding
# Conditions: TR-FRET MBNL1-His/biotin-(CUG)12 binding, 665/545 ratio; activity change, negative = inhibition: at 57.5 µM (top of the series)
# Procedure, shortened: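 Ratiometric TR-FRET (665 over 545 nm, excitation 340 nm) tracks disruption of MBNL1-His/biotin-(CUG)12 complex after 60 min at room temperature, with compounds at 92 nM to 58 uM final.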
# On the % scale 0 is the no-effect control and ±100 the full control effect; potency means the concentration at half of the fitted maximal effect; tags describe the fitted curve by direction and shape or compound fluorescence and quenching.
# Chain of UniProt Q9NR56 (Q9NR56 whole entry, looked up): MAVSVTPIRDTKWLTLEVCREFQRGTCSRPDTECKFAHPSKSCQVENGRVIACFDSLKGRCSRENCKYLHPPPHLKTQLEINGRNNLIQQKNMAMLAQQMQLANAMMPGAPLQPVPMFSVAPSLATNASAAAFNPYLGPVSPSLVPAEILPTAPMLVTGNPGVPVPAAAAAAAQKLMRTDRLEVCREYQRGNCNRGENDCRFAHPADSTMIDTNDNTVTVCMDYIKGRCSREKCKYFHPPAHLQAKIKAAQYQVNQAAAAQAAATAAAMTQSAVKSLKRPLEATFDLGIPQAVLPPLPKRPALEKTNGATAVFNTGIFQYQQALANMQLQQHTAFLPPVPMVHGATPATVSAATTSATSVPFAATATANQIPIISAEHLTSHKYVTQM
SMILES,Potency,"activity change, negative = inhibition"
O=C(NC1CCCCC1)C(c1ccc2ncccc2c1)N(Cc1ccc(F)cc1)C(=O)c1ccc2c(c1)OCCO2 (configuration not stated),inactive,
O=C(Nc1ccc(C(=O)O)cc1)Nc1ccc([N+](=O)[O-])cc1,"inconclusive: 25.1 µM [quencher, side channel, partial curve]",
O=C(NCCc1ccc(Cl)cc1)C1(c2ccccc2)CC1,inactive,
C/C(Cn1cnc([N+](=O)[O-])n1)=N\NC(=O)c1ccccc1O,"inconclusive: 35.5 µM [quencher, side channel, single point]",
Fc1ccccc1COc1ccc(/C=N/NC(=S)NCc2ccccc2)cc1,"inconclusive: 3.98 µM [quencher, side channel, single point]",
CCOC(=O)c1c(C)[nH]c(C(=O)COC(=O)/C=C/c2ccc(O)c(OC)c2)c1C,"inconclusive: 5.01 µM [fluorescent, side channel, single point]",
Cc1cnc(=O)[nH]c1SCc1ccc([N+](=O)[O-])cc1,"inconclusive: 12.6 µM [quencher, side channel, partial curve]",
Cc1nc([N+](=O)[O-])c(Br)n1CC(=O)c1ccccc1,"inconclusive: 28.2 µM [quencher, side channel, partial curve]",
CCNC(=S)NNC(=O)c1cc(-c2cccc(OC)c2)nc2ccccc12,,inactive: 6.97% [at 11.5 µM]
Cc1ccc2nc3nc(NCC4CCCO4)c(C(=O)NC4CCCCC4)cc3c(=O)n2c1 (configuration not stated),"inconclusive: 12.6 µM [quencher, partial curve, poor fit]",
CN(C)c1cc[n+](CC(=O)Nc2ccc([N+](=O)[O-])cc2Cl)cc1,"inconclusive: 14.1 µM [quencher, side channel, partial curve]",
Cc1ccc(-c2nnc(SCC(=O)Nc3nccs3)n2N)cc1,"inconclusive: 8.91 µM [fluorescent, side channel, single point]",
O=C(C1=C(O)C(=O)N(CC2CCCO2)C1c1ccccc1[N+](=O)[O-])c1ccco1 (configuration not stated),"inconclusive: 31.6 µM [quencher, side channel, partial curve]",
CCOC(=O)C(C)N1N=C(/C=C/c2ccc(OC)cc2)CCC1=O (configuration not stated),"inconclusive: 14.1 µM [quencher, side channel, partial curve]",
COc1ccc2cc[nH]c2c1,inactive,
COc1ccc2ccccc2c1/C=N/O,"inconclusive: 25.1 µM [quencher, side channel, partial curve]",
CCOc1ccc(OCC)c(NC(=O)CN(C)S(=O)(=O)c2cccc3nsnc23)c1,"inconclusive: 6.31 µM [quencher, side channel, partial curve]",
O=C(c1ccccc1F)N1CCN(Cc2cccc(Cl)c2)CC1,"inconclusive: 0.562 µM [quencher, side channel, single point]",
CC(C)=CCN1CCN(Cc2cccc3nonc23)CC1CCO (configuration not stated),"inconclusive: 14.1 µM [quencher, side channel, partial curve]",
CCOC(=O)N=Nc1c(O)n(CC)c2ccccc12,"inconclusive: 7.08 µM [quencher, side channel, partial curve, poor fit]",
Cn1c(=O)[nH]c(=O)c2c1nc(SCCO)n2Cc1ccccc1Cl,inactive,

SMILES,Potency,"activity change, negative = inhibition"
O=S(=O)(c1cccc2cccc(Cl)c12)N1CCCC1,"inconclusive: 22.4 µM [quencher, side channel, partial curve]",
CCOc1ccccc1NS(=O)(=O)c1c(C)noc1C,"inconclusive: 12.6 µM [quencher, side channel, partial curve]",
CC1=NN(c2ccccc2)C(=O)C1N=Nc1cccc(O)c1 (configuration not stated),"inconclusive: 25.1 µM [quencher, side channel, partial curve]",
CCN1C(=O)S/C(=C/c2ccsc2)C1=O,"inconclusive: 28.2 µM [quencher, side channel, partial curve]",
Cc1ccsc1/C=N/Nc1ncnc2nc[nH]c12,"inconclusive: 35.5 µM [quencher, side channel, single point]",
Cc1ccc(/C=N/NC(=O)c2nnn(-c3nonc3N)c2-c2ccc3c(c2)OCO3)s1,"inconclusive: 39.8 µM [quencher, side channel, single point]",
COc1cc(CN2CCNC(=O)C2CC(=O)N2CCCO2)cc(OC)c1 (configuration not stated),"inconclusive: 12.6 µM [quencher, side channel, partial curve]",
COc1ccc(C(=O)OCC(=O)Nc2ccccc2)cc1[N+](=O)[O-],"inconclusive: 17.8 µM [quencher, side channel, partial curve]",
O=C(NCCN1CCCC1)c1cc(-c2ccncc2)nc2ccc(S(=O)(=O)N3CCOCC3)cc12,"inconclusive: 14.1 µM [quencher, side channel, partial curve]",
CCOC(=O)c1cc(-c2ccc(OC)cc2)nn1-c1ccccc1C(=O)O,inactive,
O=C(Cc1ccccc1)N1CCN(S(=O)(=O)c2ccc([N+](=O)[O-])cc2)CC1,"inconclusive: 7.08 µM [quencher, side channel, partial curve]",
Nc1ncnc2c1ncn2[C@@H]1O[C@H](COP(=O)(O)O)[C@@H](O)[C@H]1O,inactive,
CCOC(=O)C1CCN(S(=O)(=O)c2ccc(CN3C(=O)c4cccnc4C3=O)cc2)CC1,"inconclusive: 25.1 µM [quencher, side channel, partial curve]",
COc1cccc(NC(=O)CCN2C(=O)c3ccc([N+](=O)[O-])cc3C2=O)c1,"inconclusive: 3.55 µM [quencher, full curve]",
O=C(O)CNS(=O)(=O)c1ccc2c(c1)C(=O)c1cc(S(=O)(=O)NCC(=O)O)ccc1-2,"inconclusive: 11.2 µM [quencher, side channel, partial curve]",
CC(C)c1nc2oc3c(N4CCN(C)CC4)ncnc3c2c2c1CCC2,"inconclusive: 63.1 µM [inhibitor, single point]",
COc1ccc(-c2ccc(NS(=O)(=O)c3cc([N+](=O)[O-])c(C)c([N+](=O)[O-])c3)cc2)nn1,"inconclusive: 35.5 µM [quencher, side channel, single point]",
CC1CC(C)CN(C(=O)CNC(=O)c2ccc3ccccc3c2)C1 (configuration not stated),"inconclusive: 28.2 µM [quencher, side channel, partial curve]",
CC(C)Cn1c([N+](=O)[O-])nc2c1c(=O)[nH]c(=O)n2C,inactive,
Cc1ccc(-c2n[nH]c3c2CCC3)cc1,inactive,
Cc1ccc(C(=O)NCCN2CCOCC2)cc1,inactive,

SMILES,Potency,"activity change, negative = inhibition"
CC(=O)Nc1ccc(NC(=O)CSc2nnc(NC(=O)c3ccc(Br)o3)s2)cc1,inactive,
COc1ccc(NC(=O)C2=CC(c3ccc(OC)cc3)=NS(=O)(=O)N2C)cc1,"inconclusive: 28.2 µM [quencher, side channel, partial curve]",
COc1ccc(OC)c(NC(=O)CSc2nnc(C3CCCCC3)o2)c1,inactive,
COc1ccc(NC(=O)NC2CCCc3ccccc32)cc1OC (configuration not stated),"inconclusive: 2.24 µM [quencher, side channel, full curve, poor fit]",
CNc1ccc(/C=C/C(=O)c2cccc3ccccc23)cc1[N+](=O)[O-],"inconclusive: 25.1 µM [quencher, side channel, partial curve, poor fit]",
Cc1ccc(S(=O)(=O)N/N=C/c2ccc(C#N)cc2)cc1,"inconclusive: 22.4 µM [quencher, side channel, single point]",
O=C(NNS(=O)(=O)c1ccc([N+](=O)[O-])cc1)C1CCCCC1,"inconclusive: 15.8 µM [quencher, side channel, partial curve]",
CN(C)c1ccc(C(C[N+](=O)[O-])c2c(N)n(C)c(=O)n(C)c2=O)c(F)c1C#N (configuration not stated),inactive,
CC(=O)NCc1ccc(S(=O)(=O)N/N=C/c2ccc(N(C)C)cc2)cc1,"inconclusive: 25.1 µM [quencher, side channel, single point]",
COc1ccc(-c2cc(-c3cc(OC)ccc3O)[nH]n2)cc1,inactive,
Nc1cccc(-c2nc3ncccc3o2)c1,"inconclusive: 25.1 µM [quencher, side channel, single point]",
O=C(NCc1ccccc1F)Nc1ccc([N+](=O)[O-])cc1,"inconclusive: 25.1 µM [quencher, side channel, partial curve]",
CC1CCN(S(=O)(=O)c2ccc(N/N=C(/C#N)C(N)=O)cc2)CC1,"inconclusive: 22.4 µM [quencher, side channel, partial curve]",
Brc1ccc(C2C3=C(Nc4ncnn42)c2ccccc2OC3c2ccncc2)cc1 (configuration not stated),inactive,
NC(=O)C1CCN(C2=C(Cl)C(=O)c3ccccc3C2=O)CC1,"inconclusive: 12.6 µM [quencher, side channel, partial curve]",
O=C(Nc1ccc(Br)cc1)N1CCCCCCC1,inactive,
COc1ccc(C2CC(c3ccccc3)=NN2c2ccc(/C=N/NC(=O)c3ccncc3)cc2)cc1 (configuration not stated),inactive,
COc1ccccc1/C=C/CN1CCN(c2ccccc2)CC1,inactive,
CCOC(=O)/C(C#N)=C/c1cn(CCC(=O)O)nc1-c1ccc(Cl)cc1,"inconclusive: 3.16 µM [quencher, side channel, single point]",
O=C1CCc2cc(S(=O)(=O)NC(C(=O)N3CCN(c4ccccn4)CC3)c3ccccc3)ccc2N1 (configuration not stated),inactive,
